PubChem BioAssay AID485294 (National Center for Advancing Translational Sciences (NCATS), 2010)
In all, about 370,000 compounds went through this assay and about 150 (0.041%) were called active. The inconclusive results got no clear call from the source; some entries with a clear call stand among them for comparison. The call rests on the fitted dose curve; in most records, active means well fitted inhibition curve with a large enough effect; inconclusive means small, poorly fitted or top-dose-only effect; inactive means flat fitted curve, though single readings scatter. No potency is given beside an inconclusive call; the fits are too rough.

These compounds were tested against Beta-lactamase (Escherichia coli (strain K12)) (UniProt P00811) (assay: qHTS Inhibitors of AmpC Beta-Lactamase (assay with detergent)). Conditions: AmpC hydrolysis of nitrocefin, absorbance 480 nm, 0.01% Triton; series mostly up to 114 µM.
How it was run: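 20 mM phosphate pH 7.0 + 0.01% (detergent screen) or 0.0001% Triton X-100; 5.3 nM AmpC reagent; cpd preinc 15 min RT; nitrocefin (800 uM stock) to start; A480 q20 s × 4 min; Activity was normalised to no-enzyme and no-compound control wells.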
Further: nearly all actives have a fitted effect of over 25% in size.
Potency means the concentration at half of the fitted maximal effect; tags describe the fitted curve by direction and shape.

UniProt P00811, sequence (P00811 whole entry, looked up): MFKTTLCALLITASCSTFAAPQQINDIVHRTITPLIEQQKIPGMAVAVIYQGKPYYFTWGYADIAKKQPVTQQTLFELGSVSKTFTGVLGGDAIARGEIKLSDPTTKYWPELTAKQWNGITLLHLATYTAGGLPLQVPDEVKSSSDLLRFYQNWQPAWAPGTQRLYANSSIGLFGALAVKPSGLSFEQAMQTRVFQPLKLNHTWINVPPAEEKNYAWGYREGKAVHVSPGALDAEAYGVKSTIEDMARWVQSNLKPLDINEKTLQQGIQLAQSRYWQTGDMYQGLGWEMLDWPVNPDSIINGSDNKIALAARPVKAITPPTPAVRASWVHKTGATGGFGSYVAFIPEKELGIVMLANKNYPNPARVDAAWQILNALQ

Row | Compound | Potency
1 | c1ccc(N2CCN(c3ccccc3)C2c2ccncc2)cc1 | inactive
2 | COc1ccc(CNC(=O)C(CC(C)C)NC(=O)c2ccccc2C)cc1 (stereo unspecified) | inconclusive [inhibitor, full curve, poor fit]
3 | O=C(Cc1ccc(Br)cc1)Nc1cccc(-c2cn3c(n2)SCC3)c1 | inactive
4 | Oc1c(Cl)cc(Cl)cc1C=Nc1ccccc1N1CCCC1 | inconclusive [inhibitor, single point]
5 | CCOC(=O)CSc1nnc([C@H](Cc2ccccc2)NC(=O)OC(C)(C)C)o1 | inactive
6 | CCCCN(CC)CCNC(=O)c1cc2c(=O)oc3ccc(C)cc3c2s1 | inactive
7 | O=C(OC1CCCCC1)c1ccc(NC(=O)c2ccco2)cc1 | inactive
8 | CC(C)(C)N1C(=O)[C@H]2[C@@H](c3ccc(Br)cc3)N3C(=O)N(c4cccc(F)c4)C(=O)[C@@]3(C)[C@H]2C1=O | inconclusive [inhibitor, partial curve]
9 | Cc1ccc(SCCNC(=O)c2ccc(CN3CCOCC3)cc2)cc1 | inconclusive [inhibitor, full curve, poor fit]
10 | COc1ccc(Cl)cc1N(CC(=O)N/N=C/c1ccc(OC(C)C)cc1)S(=O)(=O)c1ccc(C)c([N+](=O)[O-])c1 | inconclusive [inhibitor, partial curve, poor fit]
11 | CCOc1ccc(OCC)c(NS(=O)(=O)c2cc(Br)cc3c2N(C(C)=O)C(C)C3)c1 (stereo unspecified) | inconclusive [inhibitor, single point]
12 | Cc1nc(NC(=O)CSc2nc3cccnc3n2Cc2ccccc2)sc1C | inconclusive [inhibitor, full curve, poor fit]
13 | O=C(Cn1cnc2sc(-c3ccccc3)cc2c1=O)N1CCOCC1 | inactive
14 | CCC(=O)c1ccc(OCC(O)CN(C)C2CCCCC2)cc1 (stereo unspecified) | inactive
15 | CCOC(=O)Cn1c2c(c(-c3ccccc3OC)cc1=O)CCCC2 | inconclusive [inhibitor, partial curve, poor fit]
16 | O=[N+]([O-])c1cc(CN2CCCC2)c2cccnc2c1O | inconclusive [inhibitor, single point]
17 | CCOc1cc(Br)c(CC(=O)O)cc1OCC | inactive
18 | CCCNC(=O)C1CCN(S(=O)(=O)c2ccc(Br)cc2)CC1 | inactive
19 | CCOc1ccc2[nH]c(=O)c(CN(Cc3ccco3)C(CC)c3nnnn3Cc3ccccc3)cc2c1 (stereo unspecified) | inactive
20 | CC(C)N(C(=O)CSc1nc2ccc(Cl)cc2[nH]1)c1ccccc1 | inactive
21 | O=C(NNC(=S)Nc1cccc(C(F)(F)F)c1)c1cccc(Cl)c1 | inactive
22 | CC(=O)Nc1cc(C(=O)NCc2ccco2)ccc1Sc1ccc(F)cc1 | inconclusive [inhibitor, full curve, poor fit]
23 | CCOC(=O)Cc1nc(-c2cccc(C(F)(F)F)c2)no1 | inconclusive [inhibitor, full curve]
24 | Cc1cc(S(=O)(=O)N2CCCCC2)ccc1OCC(=O)N1CCOCC1 | inactive

Row | Compound | Potency
25 | COc1cccc(/C=C2\SC(=S)N(CCC(=O)NC3C=CS(=O)(=O)C3)C2=O)c1 (stereo unspecified) | inconclusive [inhibitor, partial curve]
26 | CCc1ccccc1N/N=C(/C)c1c(O)cc(C)oc1=O | inconclusive [inhibitor, full curve, poor fit]
27 | CCN(CC)CCCN(Cc1cc2cc3c(cc2[nH]c1=O)OCO3)C(=O)Nc1ccccc1OC | inactive
28 | CC12C(=O)N(CCC(=O)O)C(=O)C1C1C=CC2C1 (stereo unspecified) | inactive
29 | O=C(CSc1nnc(-c2ccccn2)o1)Nc1ccc(F)cc1 | inconclusive [inhibitor, single point]
30 | COc1cc(OC)c(C2C(C(=O)N3CCOCC3)=C(C)NC3=C2C(=O)CC(C)(C)C3)cc1OC (stereo unspecified) | inconclusive [inhibitor, full curve, poor fit]
31 | C=CCNC(=O)CN1CCN(C(c2ccccc2)c2ccccc2)CC1 | inactive
32 | CSc1ncccc1C(=O)OCC(=O)NC1CCCCC1 | inactive
33 | Cc1cccc(N2CCN(C(=O)C3CC(=O)N(c4ccc5c(c4)OCCO5)C3)CC2C)c1 (stereo unspecified) | inactive
34 | Cc1ccc(S(=O)(=O)N2CCC(=O)N(C(COCc3cccc(C)c3)C(C)C)CC2)cc1 (stereo unspecified) | inconclusive [inhibitor, partial curve]
35 | COc1ccc(S(=O)(=O)N(CCc2ccccc2)CC(=O)Nc2ccc(C)c(C)c2)cc1OC | inactive
36 | CC(=O)c1oc2ccccc2c1N | inactive
37 | COc1ccc(CCCc2nnc(SCC(=O)Nc3ncc(C)s3)o2)cc1 | inconclusive [inhibitor, full curve]
38 | c1ccc(-c2cnnc(N3CCOCC3)n2)cc1 | inactive
39 | CCCCC1NC(=S)N(C2CCCCC2)C1=O (stereo unspecified) | inactive
40 | CCc1nc2ccc(C(=O)N3CCN(c4ccccc4)CC3)cc2nc1CC | inactive
41 | CCn1c(SCC(=O)Nc2ccc(Cl)cc2)nc2nc3c(cc2c1=O)CCCC3 | inconclusive [inhibitor, partial curve, poor fit]
42 | Cc1ccc(-c2nc(CS(=O)CC(=O)NCCN3CCOCC3)c(C)o2)cc1 (stereo unspecified) | inconclusive [inhibitor, partial curve]
43 | CC1CCc2nc(NC(=O)CN3CCOCC3)sc2C1 (stereo unspecified) | inconclusive [inhibitor, full curve]
44 | COc1ccc(NC(=O)c2cc(-c3cc(C)ccc3O)n[nH]2)cc1Cl | inconclusive [inhibitor, single point]
45 | COc1ccc(/C(C)=N\NS(C)(=O)=O)c(OC)c1 | inconclusive [inhibitor, partial curve, poor fit]
46 | Cc1cc(C)c(NC(=O)CSc2nnc(CNC(=O)c3c(F)cccc3Cl)o2)c(C)c1 | inconclusive [inhibitor, full curve, poor fit]
47 | O=Cc1ccccc1-c1cn(CCCOCc2ccccc2)nn1 | inconclusive [inhibitor, full curve, poor fit]
48 | CN1C(=O)C(=O)N(CC(=O)N2CCc3ccccc32)C1=O | inactive

Row | Compound | Potency
49 | CCCCNC(=O)c1onc(CSc2ccc(F)c(F)c2)c1C(=O)O | inconclusive [inhibitor, partial curve, poor fit]
50 | Cc1cc(C)nc(NC(=O)Nc2ccc(F)cc2F)n1 | inactive
51 | CCOC(=O)c1[nH]c(C)c(C(=O)Nc2ccccc2F)c1C | inconclusive [inhibitor, partial curve, poor fit]
52 | COc1ccc(/C=C(/C(=O)c2ccc(Cl)cc2Cl)n2cncn2)cc1 | inconclusive [inhibitor, single point]
53 | CCOC(=O)c1cccc(NC(=O)CCc2c(C)nc3ncnn3c2C)c1 | inconclusive [inhibitor, full curve, poor fit]
54 | COc1ccc(CSc2nnc(C)n2N)cc1 | inconclusive [inhibitor, full curve, poor fit]
55 | CCN(CC)c1ccc(/C=N/NC(=S)NCc2ccccc2)cc1 | inactive
56 | C#CCOCCOCCOCCNc1nc(N2CCN(C(=O)[C@H](C)n3cc(CCCN=C(N)N)nn3)CC2)nc(N2CCN(C(=O)[C@H](Cc3ccc(O)cc3)n3cc(CCO)nn3)CC2)n1 | inconclusive [inhibitor, full curve, poor fit]
57 | CCOC(=O)N1CCN(C(=O)CS(=O)(=O)c2cn(Cc3ccc(Cl)cc3)c3ccccc23)CC1 | inconclusive [inhibitor, full curve]
58 | CC(C)c1ccc(/C=C/c2ccc(=O)n(C)n2)cc1 | inconclusive [inhibitor, full curve]
59 | Cc1ccccc1C(=O)N1CCN(c2ccc([N+](=O)[O-])c(N3CCOCC3)c2)CC1 | inactive
60 | COc1ccc(NC(=O)CN(C)C(=O)c2cccc(S(=O)(=O)Nc3ccc(OC)cc3)c2)cc1 | inconclusive [inhibitor, full curve]
61 | CCc1ccc(NC(=O)c2cnc3n(c2=O)CCS3)cc1 | inconclusive [inhibitor, full curve, poor fit]
62 | O=C(Nc1ccc(Oc2ccccc2)cc1)C1CC1 | inconclusive [inhibitor, full curve]
63 | COc1ccc(Nc2nc(N)nc(CN3CCOCC3)n2)cc1 | inconclusive [inhibitor, full curve, poor fit]
64 | Cc1coc2cc3oc(=O)c(CCC(=O)NC4CC4)c(C)c3cc12 | inconclusive [inhibitor, full curve, poor fit]
65 | COc1ccccc1-c1cc2nc(C)c(CCC(=O)Nc3ccc(Br)c(C)c3)c(C)n2n1 | inactive
66 | O=C(NC1(C(F)(F)F)C(=O)Nc2c1c(=O)[nH]c(=O)n2CCc1ccccc1)c1ccc(Cl)cc1Cl (stereo unspecified) | inactive
67 | CCOC(=O)c1cnc(Nc2nc3ccccc3o2)nc1CSC(=S)N(CC)CC | inconclusive [inhibitor, partial curve, poor fit]
68 | CCn1cc(C(=O)NCCCN(C)C)c(=O)c2cc(F)c(N3CCN(C)CC3)cc21 | inconclusive [inhibitor, full curve, poor fit]
69 | C=C(C)C1CC=C(C)/C(=N/NC(=O)CNc2ccc(C)cc2C)C1 (stereo unspecified) | inconclusive [inhibitor, partial curve, poor fit]
70 | Cc1ccc2c(c1)C(C)CC(C)(C)N2C(=O)CN1CCN(C)CC1 (stereo unspecified) | inactive
71 | CCCCOC(=O)Nc1ccc(OC)cc1S(=O)(=O)N1CCOCC1 | inconclusive [inhibitor, full curve]
